Patent publication US9974865B2, “Antibody drug conjugates (ADC) that bind to FLT3 proteins” (AGENSYS, INC., priority 2015, dated 2018)

B1: v62-1b37.1: FLT3 ligand blocking FLT3 Mab, heavy chain SEQ ID NO: 12, light chain SEQ ID NO: 13 (antibody, listed as Homo sapiens)
heavy: EVQLVESGGGVVRPGGSLRLSCAASGFTFDDYGMSWVRQAPGKGLEWVSGINWNGGSTGYADSVKGRFTISRDDAKNSLYLQMNSLRAEDTALYHCARDGYTYGPFDNWGQGTLVTVSS[skipping human IgG1 constant region]
light: DIQMTQSPSSLSASVGDRVTITCRASQGIRNDLGWYQQKPGKAPKRLIYAASSLQSGVPSRFSGSGSGTEFTLTISSLQPEDFATYYCLQHNSYPYTFGQGTKLEIKRTVAAPSVFIFPPSDEQLKSGTASVVCLLNNFYPREAKVQWKVDNALQSGNSQESVTEQDSKDSTYSLSSTLTLSKADYEKHKVYACEVTHQGLSSPVTKSFNRGEC
modifications: v62-1b37.1 heavy chain; v62-1b37.1 light chain
B2: v62-1b37.1-AGL-0129-08 (conjugate)
heavy: B1 heavy
light: B1 light

What was measured:
[1] = tested on: FLT3 expressed on the surface of MOLM-13 cells; assay: FACS binding of biotinylated antibodies in the presence of human FLT3 Ligand; conditions: hFL from 100 ng/mL serially diluted 1:2, 4° C.
Procedure: In another experiment, The ability of anti-FLT3 antibodies, CHv62.21 and v62-1b37.1, to bind to FLT3 expressed on the surface of human leukemia MOLM-13 cell line was evaluated in the presence of human FLT3 Ligand (hFL). Isotype control antibody, AGS91.1-pAF, was used as a negative control.
Briefly, The MOLM-13 cells were seeded at a density of 50,000 cells per well onto round-bottom 96 well plates. The plates were washed one time with 150 μl per well of PBS. The cells were Fc blocked (20 μg/mL) at a volume of 50 μl per well in FACS buffer (PBS+2% FBS+0.1% sodium azide) to reduce non-specific binding. Cells were incubated at 4° C. for 15 minutes. Human FLT3 Ligand was added to appropriate wells at 100 ng/mL and serially diluted 1:2 across the plate for a total of 11 points. Cells were incubated for 30 minutes at 4° C. prior to adding biotinylated FLT3 antibodies. After incubation, the biotinylated anti-FLT3 antibodies and isotype control antibody were prepared in FACS buffer at 10 μg/mL and 1 μg/mL and 25 μl was added to wells and incubated for 1 hour at 4° C. Cells were washed two times with FACS buffer and Streptavidin-PE (Jackson immune) was added 100 μl per well and incubated for 1 hour at 4° C. Cells were washed two times with FACS buffer and read on the Attune Cytometer (Life technologies) and analyzed in FlowJo (Tree Star) software.

EOL-1 cells = assay: EOL-1 growth with human FLT3 ligand and antibody (Cell Titer Glo, 5 days); assay type: cell-based; conditions: FLT3 ligand 50, 10 or 5 ng/mL, antibody 10, 1, 0.1 μg/mL
Procedure: The ability of FLT3 antibodies (CHv62.21 and v62-1b37.1) to mediate the effect of human FLT3 ligand was evaluated using the human leukemia EOL-1 cell line, which endogenously expresses FLT3. Isotype control antibody (mLys-1c3.1) was also used. […] The next day, cells were treated with 50, 10 or 5 ng/mL of human FLT3 ligand (in 25 μl of complete media) and 10, 1, 0.1 and 0 μg/mL of test antibody (in 25 μl of complete media). Media alone was used as the untreated control. […] At the end of the incubation period, 100 μl of Cell Titer Glo was added to each well and incubated for 30 minutes, shaking, at room temperature.

[2] = molecular target: T1, Recombinant human FLT3-Fc / biotinylated FLT3 ligand (Homo sapiens, UniProt P36888); assay: Luminex FLT3 ligand blocking assay; assay type: binding; conditions: biotinylated FLT3 ligand 5 ng/mL, antibody 10 μg/mL, 60 minutes
T1 construct: purchased R and D Systems
Text: In one experiment, the CHv62.21 MAb of the invention was confirmed to not block FL. Briefly, Recombinant human FLT3-Fc was purchased from R and D Systems. This protein was immobilized onto the surface of activated Luminex microspheres using standard sulfo-NHS/EDC chemistry according to the procedure provided by Luminex. A His-tagged version of the protein, along with several other proteins were conjugated to Luminex microspheres, and served as controls in this procedure.
In addition, FLT3 ligand was also purchased from R and D Systems. The ligand was biotinylated using Thermo Scientific EZ-Link Sulfo-NHS-LC-Biotin, No-Weigh Formula according to the manufacturer's recommendations. After two (2) hours of reacting the protein with Sulfo-NHS-LC-Biotin, unincorporated biotin was removed by dialysis against DPBS.
The ability of FLT3 immobilized onto the surface of the microspheres to bind to its biotinylated ligand was assessed by reacting the microspheres with various concentrations of biotinylated ligand, prepared in buffer containing PBS, 2% BSA, 0.05% Tween 20, and 0.1% sodium azide, for 120 minutes at RT with gentle shaking. At the end of the incubation, the microspheres were aspirated and washed. Biotinylated FLT3 ligand bound to its immobilized receptor was detected with Streptavidin-R-Phycoerythrin (Moss, Inc.). The fluorescence associated with the microspheres was measured with the Luminex instrument.
Finally, to assess the ability of the FLT3 antibodies to potentially block ligand, mixtures were prepared containing biotinylated FLT3 ligand at 5 ng/mL, plus the various antibodies under investigation at 10 μg/mL. These mixtures were applied to the FLT3 immobilized onto the microspheres and incubated for 60 minutes. […] Biotinylated FLT3 ligand bound to its immobilized receptor was detected with Streptavidin-R-Phycoerythrin (Moss, Inc.). The fluorescence associated with the microspheres was measured with the Luminex instrument. Antibodies with the capability to block ligand were observed by reduction in MFI (median fluorescence intensity).

RS-4-11 cells = assay type: cell-based, human

Molecule | interference of human FLT3 Ligand with antibody binding [1] | effect on growth in the presence of FLT3 ligand (EOL-1 cells) | blocking of FLT3 ligand binding to FLT3 [2] | blocking of FLT3 ligand binding to FLT3 ([2]; listed as 1b37.1) | cytotoxicity (RS-4-11 cells)
B1 | does interfere with the binding | inhibits growth at high concentrations | FL blocker | FLT3 ligand blocker | 
B2 |  |  |  |  | can induce cytotoxicity
